From a collection of fitness landscapes (doi:10.1016/j.celrep.2020.107928) come the findings set out here.

B1: Caulobacter ParB omega fusion; a variant is named by its letters at X, in order, B8GW30 (parent)
chain: MESVVVGEPGMSEGRRGLGRGLSALLGEVDAAPAQAPGEQLGGSREAPIEILQRNPDQPRRTFREEDLEDLSNSIREKGVLQPILVRPSPDTAGEYQIVAGERAWRAAQRAGLKTVPIMVRELDDLAVLEIGIIENVQRADLNVLEEALSYKVLMEKFERTQENIAQTIGKSXSHVANXMRLLXLPDEVQSYLVSGELTAXHARAIAAAADPVALAKQIIEGGLSVRETEALARKAPNLSAGKSKGGRPPRVKDTDTQALESDLSSVLGLDVSIDHRGSTGTLTITYATLEQLDDLCNRLTRGI

Over roughly 81,000 sequences, “one-hybrid fitness for binding NBS DNA” has its median near -0.1; the highest 2% begin near 0.36. Some of the results follow. Some results are limits rather than exact numbers.

Variants of B1 are the subject of this assay. Put plainly: one-hybrid fitness for binding NBS DNA (the Noc-binding site; scaled: cognate 1, non-cognate 0); higher = stronger binding. The settings on record: with NBS DNA site. The method in brief:
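On M9-minus-histidine containing 0.1 mM IPTG and 5 mM 3-AT, E. coli USO cells with a HIS3 reporter, site 19 bp from the promoter, grew 48 hours at 37°C to select Caulobacter ParB libraries randomised at four specificity codons. Plasmids from before and after were Illumina-sequenced, with three replicate libraries pooled and variants under 10 reads left out. Fitness is the log change in variant-to-wild-type read ratio, rescaled against cognate and non-cognate.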
Consider RKEL, for which the “one-hybrid fitness for binding NBS DNA” value is no more than 0.2.
Regarding AYFI, the “one-hybrid fitness for binding NBS DNA” value was no more than 0.2.
ADPK: the “one-hybrid fitness for binding NBS DNA” value is no more than 0.2.
Take EMVP: the “one-hybrid fitness for binding NBS DNA” value is no more than 0.2.
For NKTT, the “one-hybrid fitness for binding NBS DNA” value was no more than 0.2.
Take VTAW: the “one-hybrid fitness for binding NBS DNA” value was no more than 0.2.
Under LGTN stands no more than 0.2; under GAIS, no more than 0.2; under WGKT, no more than 0.2.
Turning to CHPW, the “one-hybrid fitness for binding NBS DNA” value is no more than 0.2.
QLAH: the “one-hybrid fitness for binding NBS DNA” value was no more than 0.2.
AFLC: the “one-hybrid fitness for binding NBS DNA” value was no more than 0.2.
As for SHVE, the “one-hybrid fitness for binding NBS DNA” value is no more than 0.2.
LPDC: the “one-hybrid fitness for binding NBS DNA” value is no more than 0.2.
For the variant SDYK, the “one-hybrid fitness for binding NBS DNA” value is no more than 0.2.
As for IEPG, the “one-hybrid fitness for binding NBS DNA” value was no more than 0.2.
Under KFNT stands no more than 0.2; under WMGC, no more than 0.2; under AHSF, no more than 0.2.
Under RHVS stands 0.242; under RQKH, 0.376; under PVND, no more than 0.2.
Turning to SCVN, the “one-hybrid fitness for binding NBS DNA” value was no more than 0.2.
As to PRTG, the “one-hybrid fitness for binding NBS DNA” value is no more than 0.2.
Turning to HWLH, the “one-hybrid fitness for binding NBS DNA” value was no more than 0.2.
For APYR, the “one-hybrid fitness for binding NBS DNA” value was no more than 0.2.
On to QSET, for which the “one-hybrid fitness for binding NBS DNA” value was 0.253.
For SNKR, the “one-hybrid fitness for binding NBS DNA” value was no more than 0.2.
For the variant AGRP, the “one-hybrid fitness for binding NBS DNA” value is no more than 0.2.
Regarding FCYM, the “one-hybrid fitness for binding NBS DNA” value is no more than 0.2.
With IICR, the “one-hybrid fitness for binding NBS DNA” value is no more than 0.2.
For the variant WFVS, the “one-hybrid fitness for binding NBS DNA” value was no more than 0.2.
Turning to KSCQ, the “one-hybrid fitness for binding NBS DNA” value is no more than 0.2.
As for FMKS, the “one-hybrid fitness for binding NBS DNA” value is no more than 0.2.
Under SDMA stands no more than 0.2.
The same measure for WTVL: no more than 0.2.
In the case of SFKW, the “one-hybrid fitness for binding NBS DNA” value was no more than 0.2.
Take TGRN: the “one-hybrid fitness for binding NBS DNA” value was no more than 0.2.
Under RTGH stands 0.271; under NQKD, no more than 0.2; under WHHC, no more than 0.2.
Regarding LLGN, the “one-hybrid fitness for binding NBS DNA” value is no more than 0.2.
On to LSHY, for which the “one-hybrid fitness for binding NBS DNA” value was no more than 0.2.
Take FGCC: the “one-hybrid fitness for binding NBS DNA” value is no more than 0.2.
Consider MKGG, for which the “one-hybrid fitness for binding NBS DNA” value is no more than 0.2.
Regarding AKAN, the “one-hybrid fitness for binding NBS DNA” value is no more than 0.2.
With TCHS, the “one-hybrid fitness for binding NBS DNA” value is no more than 0.2.
Under QNTL stands no more than 0.2.
The same measure for EQSR: no more than 0.2.
Under KRCD stands no more than 0.2; under SLSM, no more than 0.2.
As to PLED, the “one-hybrid fitness for binding NBS DNA” value is no more than 0.2.
Take VLMM: the “one-hybrid fitness for binding NBS DNA” value was no more than 0.2.
On to DADY, for which the “one-hybrid fitness for binding NBS DNA” value was no more than 0.2.
Under SCYL stands no more than 0.2; under VVRN, no more than 0.2.
On to WYNW, for which the “one-hybrid fitness for binding NBS DNA” value was no more than 0.2.
For the variant GHIS, the “one-hybrid fitness for binding NBS DNA” value was no more than 0.2.
For GQYF, the “one-hybrid fitness for binding NBS DNA” value is no more than 0.2.
With DMDC, the “one-hybrid fitness for binding NBS DNA” value is no more than 0.2.
As to MRIT, the “one-hybrid fitness for binding NBS DNA” value is no more than 0.2.
In the case of AWEG, the “one-hybrid fitness for binding NBS DNA” value is no more than 0.2.
For the variant ALCL, the “one-hybrid fitness for binding NBS DNA” value is no more than 0.2.
RDKL: the “one-hybrid fitness for binding NBS DNA” value is no more than 0.2.
Regarding DMSC, the “one-hybrid fitness for binding NBS DNA” value is no more than 0.2.
Regarding FCRT, the “one-hybrid fitness for binding NBS DNA” value was no more than 0.2.
Turning to WHRR, the “one-hybrid fitness for binding NBS DNA” value is no more than 0.2.
In the case of VGPS, the “one-hybrid fitness for binding NBS DNA” value is no more than 0.2.
With YLVK, the “one-hybrid fitness for binding NBS DNA” value was no more than 0.2.
Turning to LANE, the “one-hybrid fitness for binding NBS DNA” value was no more than 0.2.
The same measure for TSVW: no more than 0.2.
Take MWLG: the “one-hybrid fitness for binding NBS DNA” value is no more than 0.2.
With YPKR, the “one-hybrid fitness for binding NBS DNA” value is no more than 0.2.
On to HRQL, for which the “one-hybrid fitness for binding NBS DNA” value is no more than 0.2.
The same measure for KASI: no more than 0.2; for FHAE: no more than 0.2; for WSSG: no more than 0.2.
